Laboratory results published in PubChem BioAssay AID686979 (National Center for Advancing Translational Sciences (NCATS), 2013).
“And” between values parts separate entries of the source, which are not always exact repeats. Equal entries are not always repeated. The campaign covered roughly 420,000 compounds. About 50,000 (12%) were called active. The inconclusive results got no clear call from the source; some entries with a clear call stand among them for comparison. Calls come from the whole dose curve; as a rule, active = well fitted inhibition curve with a large enough effect; inconclusive = small, poorly fitted or top-dose-only effect; inactive = flat fitted curve, though single readings scatter. Potencies of inconclusive entries are doubtful fits and often do not repeat.

assay: qHTS for Inhibitors of human tyrosyl-DNA phosphodiesterase 1 (TDP1): qHTS in cells in presence of CPT; settings: chicken DT40 Tdp1-/-;hTDP1 cells + 20 nM CPT, ATP luminescence, 48 h; activity change, negative = growth inhibition: at 46.2 µM (top of the series); note: nearly all actives have a fitted effect of over 55% in size
Procedure, shortened: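 Chicken DT40 Tdp1-/- cells complemented with human TDP1, 400 cells/well, exposed to compounds plus 20 nM camptothecin for at least 48 h at 37 C; viability read as ATP content by CellTiter-Glo luminescence.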
% is set by controls: 0 for no effect and ±100 for the full control effect; potency is the fitted concentration of half-maximal effect; tags give direction and shape of the fitted curve.

Row | Compound | Potency | activity change, negative = growth inhibition
1 | O=C(NCCC1CCCCN1S(=O)(=O)c1cccs1)C(=O)Nc1ccccc1 (centres undefined) | active: 16.4 µM | –
2 | COC(=O)Nc1nn(-c2ccc(OC)cc2)c(=O)c(C#N)c1C | – | inactive: -7.44%
3 | O=[N+]([O-])c1ccc(COc2ccc(Br)cc2CN2CCOCC2)cc1 | inconclusive: 16.4 µM [inhibitor, single point] | –
4 | Cc1cc(N2C(=O)c3ccc(C(=O)Nc4ccc(CC(=O)O)cc4)cc3C2=O)no1 | – | inactive: 0.318%
5 | CC(C)n1c(=S)[nH]c2cc(C(F)(F)F)ccc21 | inconclusive: 29.1 µM [inhibitor, single point] | –
6 | Cc1cccc(-c2noc(-c3ccccc3C(=O)NCC3CCCO3)n2)c1 (centres undefined) | inconclusive: 7.31 µM [inhibitor, partial curve, poor fit] | –
7 | CC(=O)c1cccc(Nc2nc(-c3ccccc3)cs2)c1 | inconclusive: 5.17 µM [inhibitor, single point] | –
8 | Cc1ccc(OCCn2c(=O)cnc3ccccc32)cc1 | inconclusive: 29.1 µM [inhibitor, single point] | –
9 | COc1ccc(N(CC(=O)Nc2ccc3c(c2)OCCO3)S(=O)(=O)c2cccc(C)c2)cc1 | active: 25.9 µM | –
10 | CNC(=O)c1cc(C(=O)c2ccc(Cl)cc2)c(Br)[nH]1 | inconclusive: 29.1 µM [inhibitor, single point] | –
11 | Cn1c(CO)cnc1S(=O)(=O)Cc1c(Cl)cccc1Cl | inconclusive: 29.1 µM [inhibitor, single point] | –
12 | Cc1cccc(NC(=O)NCCOCCn2c(=O)oc3ccccc32)c1C | inconclusive: 29.1 µM [inhibitor, single point] | –
13 | c1ccc2c(c1)NCC1CCCN21 (centres undefined) | active: 20.6 µM | –
14 | O=C(Cc1ccsc1)Nc1ccc(S(=O)(=O)C(F)F)cc1 | inconclusive: 29.1 µM [inhibitor, single point] | –
15 | CC(=O)Nc1cc(-c2ccccc2)nn1Cc1cccc(Cl)c1 | – | inactive: -17.4%
16 | COc1ccc(CCC(=O)NCc2nc3cccnc3n2Cc2ccccc2)cc1 | inconclusive: 29.1 µM [inhibitor, single point] | –
17 | Nc1nonc1-c1nc2ccccc2n1CC(=O)N/N=C\c1ccc(-c2ccc(Cl)cc2)o1 | active: 7.31 µM | –
18 | COc1cc(C(=O)Nc2nnc(Cc3ccccc3)s2)cc(OC)c1OC | – | inactive: -28.1%
19 | Cc1ccc2c(c1)CN(C(=O)CC(c1ccccc1)c1ccco1)CC(C)O2 (centres undefined) | – | inactive: 0.158% [at 9.04 µM]
20 | CCOC(=O)c1c(C)[nH]c(C)c1S(=O)(=O)N1CCN(c2ccc([N+](=O)[O-])cc2)CC1 | inconclusive: 23.1 µM [inhibitor, single point] | –
21 | Cc1cccc(Nc2nc(N)c([N+](=O)[O-])c(NCc3ccccc3)n2)c1 | inconclusive: 23.1 µM [inhibitor, single point] | –
22 | CCOC(=O)c1c(NC(=O)Cc2ccccc2)sc2c1CCN(CC)C2 | inconclusive: 29.1 µM [inhibitor, single point] | –
23 | COc1ccc(-c2nnn(CCC(=O)O)n2)cc1 | – | inactive: -15.7%

Row | Compound | Potency | activity change, negative = growth inhibition
24 | O=C(O)CCN1C(=O)c2ccc(NC(=O)CSc3ccccc3)cc2C1=O | inconclusive: 29.1 µM [inhibitor, single point] | –
25 | COCCNc1nc(Nc2ccccc2Cl)c2sc(-c3ccccc3)cc2n1 | inconclusive: 20.6 µM [inhibitor, partial curve, poor fit] | –
26 | c1cncc(CN2CCN(c3cc(-c4cnc5ccccc5c4)nc4ccnn34)CC2)c1 | inconclusive: 16.4 µM [inhibitor, partial curve] | –
27 | Cc1cnc(C)c(N2CCN(Cc3nc(-c4cccc(F)c4F)oc3C)CC2)n1 | inconclusive: 18.4 µM [inhibitor, single point] | –
28 | Nc1c(C(=O)N/N=C/c2cccnc2)oc2nc(-c3ccccc3)cc(-c3ccco3)c12 | inconclusive: 29.1 µM [inhibitor, single point] | –
29 | NS(=O)(=O)c1ccc(CNC(=O)c2scc3c2CCCC3)cc1 | – | inactive: 0.0507%
30 | CCN(CC)C(=O)c1cccc(NC(=O)CC23CC4CC(CC(C4)C2)C3)c1 | inconclusive: 29.1 µM [inhibitor, single point] | –
31 | COc1ccccc1NC(=O)CCN1C(=O)/C(=C/c2cc(OC)c(OC)c(OC)c2)SC1=S | inconclusive: 20.6 µM [inhibitor, partial curve] | –
32 | Cc1c(OCC(=O)N(C)C)ccc2c3c(c(=O)oc12)CCCCC3 | – | inactive: -15.8%
33 | Cc1ccc(CCNC(=O)C23CN(Cc4ccccc4)CC2C(c2cccc([N+](=O)[O-])c2)=NO3)cc1 (centres undefined) | inconclusive: 7.31 µM [inhibitor, single point] | –
34 | Cc1ccc(S(=O)(=O)Nc2cc(C(C(=O)OC(C)C)C(=O)C(F)(F)F)c(O)c3ccccc23)c(C)c1 (centres undefined) | inconclusive: 29.1 µM [inhibitor, single point] | –
35 | COc1ccc(CCNC(=O)CCc2c(C)c3cc4c(C)coc4cc3oc2=O)cc1 | inconclusive: 1.03 µM [inhibitor, full curve] | –
36 | O=c1c2c3nc4ccccc4nc3n(CCN3CCOCC3)c2ncn1CCN1CCOCC1 | – | inactive: -21.1%
37 | O=[N+]([O-])c1ccc(-c2ccc(/C=N/O)o2)cc1 | – | inactive: -22.1%
38 | Cn1ccnc1SCC(=O)Nc1cc(S(=O)(=O)N2CCOCC2)ccc1Cl | – | inactive: -2.15%
39 | CC(C)(C)OC(=O)N1CCC[C@H]1c1nnc(SCc2ccc(Cl)cc2)o1 | inconclusive: 23.1 µM [inhibitor, single point] | –
40 | Cc1sc2ncnc(N3CCN(Cc4ccccc4)CC3)c2c1-c1ccc(F)cc1 | inconclusive: 23.1 µM [inhibitor, single point] | –
41 | Cc1ccccc1Cn1c(CN2CCN(c3cc(Cl)ccc3C)CC2)nc2c1c(=O)[nH]c(=O)n2C | inconclusive: 16.4 µM [inhibitor, single point] | –
42 | CCNc1ncc2nc(-c3cn(C)c4ccccc34)c(=O)n(C)c2n1 | – | inconclusive: -30.8% [inhibitor]
43 | CC(=O)c1ccc2noc(-c3ccc(C)cc3)c2c1 | inconclusive: 29.1 µM [inhibitor, single point] | –
44 | COc1ccccc1C(=O)Nc1cc(-c2ccc(C)cc2)no1 | inactive and inconclusive: 11.6 µM [inhibitor, single point] | –
45 | Cc1nc(N2CCC(C)CC2)c2c(C)c(C(=O)Nc3ccccc3C(F)(F)F)sc2n1 | inconclusive: 18.4 µM [inhibitor, single point] | –
46 | Cn1cc(/C=N/NC(=O)c2ccccc2O)c2ccccc21 | inconclusive: 23.1 µM [inhibitor, single point] | –

Row | Compound | Potency | activity change, negative = growth inhibition
47 | COc1ccc(-c2c(-c3ccccc3OC)sc3ccccc23)cc1C=O | inconclusive: 20.6 µM [inhibitor, single point] | –
48 | CC1(C)C=Cc2c(ccc3c2OC[C@@H](c2ccc(O)cc2O)C3)O1 | active: 25.9 µM | –
49 | Cc1cc(C)c(-n2c(C)cc(/C=C3/NC(=O)NC3=O)c2C)c(C)c1 | inconclusive: 29.1 µM [inhibitor, single point] | –
50 | CCc1ccc(OCC(=O)Nc2ccc(-c3cc4ccccc4oc3=O)c(OC)c2)cc1 | active: 6.51 µM | –
51 | Cc1ccc(C)c(N2CCN(C(=O)c3cc4sccc4n3C)CC2)c1 | inconclusive: 23.1 µM [inhibitor, single point] | –
52 | Cc1ccc(Cl)cc1NC(=O)CCCN1C(=O)CCn2nc(-c3cn(C)c4ccccc34)cc21 | inconclusive: 20.6 µM [inhibitor, partial curve] | –
53 | Cc1cc(Cl)c(S(=O)(=O)N2CCSCC2)cc1OCC(=O)NC1CCCCC1 | active: 16.4 µM | –
54 | CC(C)(C)c1ccc(-c2nnc3sc(-c4ccccn4)nn23)cc1 | inconclusive: 16.4 µM [inhibitor, partial curve] | –
55 | O=C(NNC(=S)Nc1ccccc1C(F)(F)F)C1CC1 | – | inactive: 1.47%
56 | COc1ccc(/C=C(/CC(=O)NCc2ccc(Cl)cc2)c2nc3ccccc3s2)cc1 | – | inconclusive: -38.4% [inhibitor]
57 | COc1ccc(C)cc1S(=O)(=O)NCC(c1ccc(N(C)C)cc1)N1CCc2ccccc21 (centres undefined) | inconclusive: 29.1 µM [inhibitor, single point] | –
58 | CCOC(=O)c1c(-c2ccc(-c3ccccc3)cc2)csc1NC(=O)c1cccc(N2C(=O)CCC2=O)c1 | active: 8.2 µM | –
59 | Cc1cc(Br)ccc1OCC(=O)NNC(=O)c1cnccn1 | inconclusive: 25.9 µM [inhibitor, single point] | –
60 | CCOc1cc(/C=C/c2cc(C(=O)O)c3ccccc3n2)ccc1O | – | inactive: -3.29%
61 | CCn1c(SCC(=O)Nc2cc(C)on2)nnc1-c1cccs1 | – | inactive: -0.521%
62 | O=C(CSc1nnc(COc2ccccc2Cl)o1)NC(=O)NCc1ccco1 | – | inconclusive: -32.6% [inhibitor]
63 | O=C(Nc1ccc(Br)cc1)c1cccc(OC(=S)N2CCOCC2)c1 | inconclusive: 29.1 µM [inhibitor, single point] | –
64 | CCN(CC)C(=O)C1=C(C)N(Cc2ccc(F)cc2)C(=O)C(CC(=O)NC(c2ccccc2)c2ccccc2)C1 (centres undefined) | inconclusive: 18.4 µM [inhibitor, single point] | –
65 | O=C1C(Cc2ccccc2)Nc2ncnc(N3CCc4ccccc4C3)c2N1Cc1ccc(Cl)cc1 (centres undefined) | inconclusive: 29.1 µM [inhibitor, single point] | –
66 | Fc1ccccc1CNCc1ccc2c(c1)OCO2 | – | inactive: -15.1%
67 | COc1ccc(NC(=O)C2CCCN2S(=O)(=O)c2ccc3c(c2)CCC(=O)N3)cc1 (centres undefined) | – | inactive: -0.202%
68 | N#CC(C#N)=Cc1cc2ccccc2nc1N1CCOCC1 | active: 13 µM | –
69 | CCOc1ccccc1NC(=S)N1CCN(c2ccccc2F)CC1 | inconclusive: 29.1 µM [inhibitor, single point] | –
